# The campaign covered roughly 310,000 compounds. About 2,200 (0.71%) showed an effect of 50% or more. The effect is printed as a negative number. The list shows a part of the results.
# Target: human ether-à-go-go-related gene (hERG) potassium channel (human, UniProt Q12809)
# Experiment: primary screen, population patch clamp on CHO cells stably expressing hERG
# Chain of human ether-à-go-go-related gene (hERG) potassium channel (Q12809 whole entry, looked up): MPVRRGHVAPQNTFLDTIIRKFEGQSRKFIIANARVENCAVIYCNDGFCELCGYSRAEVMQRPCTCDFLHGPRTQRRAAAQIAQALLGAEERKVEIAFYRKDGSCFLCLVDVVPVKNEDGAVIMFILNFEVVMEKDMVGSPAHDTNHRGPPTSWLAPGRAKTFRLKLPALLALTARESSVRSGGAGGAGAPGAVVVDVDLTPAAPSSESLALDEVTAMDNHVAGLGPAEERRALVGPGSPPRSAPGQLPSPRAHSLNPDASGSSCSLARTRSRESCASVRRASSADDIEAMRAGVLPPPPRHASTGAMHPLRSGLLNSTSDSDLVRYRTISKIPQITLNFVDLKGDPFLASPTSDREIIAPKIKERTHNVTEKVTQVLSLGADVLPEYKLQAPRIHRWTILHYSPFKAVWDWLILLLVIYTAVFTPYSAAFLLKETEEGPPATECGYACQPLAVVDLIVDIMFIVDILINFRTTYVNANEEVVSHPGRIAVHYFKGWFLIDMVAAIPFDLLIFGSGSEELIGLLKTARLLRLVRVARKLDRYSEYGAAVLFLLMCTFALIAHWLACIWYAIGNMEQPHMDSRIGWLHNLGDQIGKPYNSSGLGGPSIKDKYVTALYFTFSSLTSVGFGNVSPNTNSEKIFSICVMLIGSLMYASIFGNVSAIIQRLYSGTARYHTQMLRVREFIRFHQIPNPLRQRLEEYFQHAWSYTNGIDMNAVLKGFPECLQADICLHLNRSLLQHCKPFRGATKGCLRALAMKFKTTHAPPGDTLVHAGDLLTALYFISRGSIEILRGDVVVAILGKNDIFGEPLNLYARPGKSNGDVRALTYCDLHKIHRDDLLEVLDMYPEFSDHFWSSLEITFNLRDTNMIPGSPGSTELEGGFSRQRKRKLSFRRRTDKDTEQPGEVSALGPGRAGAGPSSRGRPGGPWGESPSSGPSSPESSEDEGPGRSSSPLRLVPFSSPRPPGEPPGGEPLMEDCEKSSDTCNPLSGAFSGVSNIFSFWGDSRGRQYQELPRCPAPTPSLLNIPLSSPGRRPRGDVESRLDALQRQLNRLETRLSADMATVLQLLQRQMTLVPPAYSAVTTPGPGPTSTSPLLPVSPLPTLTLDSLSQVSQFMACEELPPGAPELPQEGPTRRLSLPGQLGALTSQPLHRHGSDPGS
row,SMILES,"hERG current change (%, negative = inhibition) at 1uM"
1,Cc1cc(C)cc(N2CC(c3nc4ccccc4n3C)CC2=O)c1 (centres unmarked),2.4%
2,COc1ccc(F)cc1C1=CC(=O)C[C@H](c2ccc3c(c2)OCO3)C1,11.3%
3,CCC(=O)OC1CSc2nc3ccccc3n2C1 (centres unmarked),3.58%
4,COc1ccc(NC(=O)c2ccc(NC(=O)c3cccs3)cc2)cc1,0.302%
5,CC(=O)Nc1ccc(NC(=O)C(C)OC(=O)CCC(=O)c2ccc(F)cc2)cc1 (centres unmarked),8.41%
6,CCn1c(SCC(=O)c2c(N)n(C3CC3)c(=O)[nH]c2=O)nc2cc(S(N)(=O)=O)ccc21,15%
7,N#C/C(=C/c1ccccc1)c1nn(CCO)c(N)c1C#N,9.65%
8,Cc1cccc(-c2noc(Cc3ccccc3)n2)c1,8.12%
9,CCN(CC)S(=O)(=O)c1cccc(C(=O)Nc2nncs2)c1,7.46%
10,CC(=O)N1CCc2cc(S(=O)(=O)NC(Cc3ccccc3)C(=O)NC3CCCCCC3)ccc21 (centres unmarked),0.252%
11,COc1ccc2oc(=N)c(C(=O)Nc3ccccc3)cc2c1,-3.79%
12,COC(=O)c1c(C(=O)OC)c(-c2ccc(Br)cc2)n2c1CS(=O)C2 (centres unmarked),12.5%
13,Cc1ccc(C)c(N(CC(=O)NCc2ccccc2)C(=O)c2csnn2)c1,8.06%
14,O=C(O)CNC(=O)C(c1ccccc1)c1ccccc1,11.2%
15,O=C(CCNC(=O)Cn1ccc2ccccc2c1=O)NCC1CCCC1c1ccccc1 (centres unmarked),1.85%
16,CCN(CC(=O)N1CCN(Cc2ccccc2)CC1)S(=O)(=O)c1ccccc1,15.9%
17,C=CCN1C(=O)C2C(C(=O)NC3CCCCC3)C3C=CC2(O3)C1C(=O)NC1CCCC1 (centres unmarked),7.07%
18,CC(C)C[C@@H]1NC(=O)[C@H](C(C)C)NC(=O)c2cc([N+](=O)[O-])cc(I)c2NCC[C@@H](C(N)=O)NC1=O,-3.05%
19,CCC(C)N(C(=O)COC(=O)c1cc([N+](=O)[O-])ccc1N)C1CCS(=O)(=O)C1 (centres unmarked),15.1%
20,O=S(=O)(/N=C/N1CCOCC1)c1ccc(Cl)cc1,6.69%
21,O=C(c1ccc(OCC2CCCO2)cc1)N1CCc2ccccc2C1 (centres unmarked),11%
22,O=C(O)CCC(=O)Nc1ccc(OCC(=O)O)cc1,12.5%
23,Cc1ccccc1-n1c(SCC(=O)Nc2ccccc2Cl)nc2n[nH]c(C)c2c1=N,10.3%

row,SMILES,"hERG current change (%, negative = inhibition) at 1uM"
1,COc1ccc(F)cc1S(=O)(=O)Nc1ccc(C)cc1,10.7%
2,Brc1ccc(-c2cn3ccccc3n2)cc1,0.36%
3,Cc1ccc(NS(=O)(=O)c2cc3c4c(c2)CC(=O)N4CCC3)cc1C,5.67%
4,CN1c2ccccc2N(C)C1(C)c1cccc2ccccc12,8.07%
5,N#Cc1cc(Oc2ccc3ccccc3c2)c(-n2nnc3ccccc32)cc1C#N,11.7%
6,COc1ccc(NC(=O)c2ccc(Br)o2)c([N+](=O)[O-])c1,9.83%
7,Cc1ccc(C)c(CSc2ccc3nnc(-c4ccccn4)n3n2)c1,-54.3%
8,COc1cc(CC(=O)Nc2ccc3c(c2)CCC3)cc(OC)c1OC,5.91%
9,Cc1onc(-c2ccccc2Cl)c1C(=O)NCCn1ccc2ccccc21,-12.2%
10,Cc1cccc(N2CCN(C(=O)C(C)C)CC2)c1C,0.865%
11,COc1cc(C(=O)/C=C/c2cccnc2)c([N+](=O)[O-])cc1OC,11.2%
12,O=C(Nc1ccc(OC(F)F)cc1)c1cc(S(=O)(=O)N2CCCCC2)ccc1N1CCOCC1,-7.89%
13,COc1cc(-c2nc(Cc3c(F)cccc3Cl)no2)cc(OC)c1OC,6.29%
14,O=c1cc(-c2ccccc2)[nH]c2cc(Cl)ccc12,11.3%
15,C/C(CCC(C)C)=N\Nc1cc(C)c2ccccc2n1,5.1%
16,Nc1oc2ccccc2c1C(=O)Cc1ccccc1O[C@@H]1O[C@H](CO)[C@@H](O)[C@H](O)[C@H]1O,12.8%
17,COc1ccnc(CSC(N)=Nc2ccccc2OC)c1.Cl,-8.43%
18,COc1ccc(/C=C(/C(=O)NCc2ccccc2)c2ccccc2)cc1,-5.18%
19,CC1(C)CC(NC(=O)c2ccncc2)CC(C)(C)N1O.Cl,12.4%
20,C=C1CCC2C(C)(C)[C@@H](O)CC[C@@]2(C)[C@@H]1COc1ccc2ccc(=O)oc2c1 (some centres unmarked),19.7%
21,CCn1nnnc1SCC(=O)Nc1nc(C)c(C)s1,7.96%
22,O=C(NNC(=O)C1CCC1)c1ccccc1F,12.3%
23,O=C(NCc1csc(-c2ccccc2)n1)c1cc(F)cc2c1OCOC2,9.52%

row,SMILES,"hERG current change (%, negative = inhibition) at 1uM"
1,N#CCCn1cc(/C=N/O)c(-c2ccc(-c3ccccc3)cc2)n1,9.98%
2,C/C(=N\Nc1ccccc1)c1c(O)n(-c2ccccc2)c(=O)[nH]c1=O,9.21%
3,COc1ccc2c(c1OC)C(=O)OC2C/C(=N\NC(N)=O)c1ccccc1 (centres unmarked),18.9%
4,Cc1ccc(Cn2c(CN3CC(C)OC(C)C3)nc3c2c(=O)[nH]c(=O)n3C)cc1 (centres unmarked),-3.88%
5,Cc1cc(S(=O)(=O)N2CCOCC2)c(C)s1,14.9%
6,CCOC(=O)c1c(-n2c(C)cc(/C=C3/C(=O)NC(=O)N(CC)C3=O)c2C)sc2c1CCCC2,4.99%
7,COc1ccc(Cl)cc1NC(=O)CCS(=O)(=O)c1cc2c(cc1C)NC(=O)CO2,1.74%
8,CNC(=O)C(=O)Nc1ccc(C)cc1C,5.63%
9,COc1ccc(-c2csc3nc(C(C)C)oc(=O)c23)cc1OC,7.59%
10,Cc1cc(C)c[n+](-c2[nH]c(=O)sc2/C=N/N=C(\N)[S-])c1,17.5%
11,COc1cccc(OC)c1C(=O)Nc1ccc(CN2CCCCC2)cc1,10.2%
12,CCO[C@H]1OC(C(=O)O)=C[C@@H](c2csc3ccccc23)[C@@H]1CCCO,18.6%
13,CC1(C)CC(=O)C(C(=O)c2ccccc2)C(=O)C1Cl (centres unmarked),4.38%
14,O=C(NC(=O)c1ccccc1O)c1ccc2c(c1)CCO2,12.4%
15,O=C(NCCO)Nc1ccc2nc(-c3ccco3)c(-c3ccco3)nc2c1,4.56%
16,Cc1ccc(C2c3c(oc4ccc(Cl)cc4c3=O)C(=O)N2CCCN2CCOCC2)o1 (centres unmarked),3.82%
17,Cc1cc2c3nonc3ccc2n1-c1ccccc1,8.08%
18,Cc1cc2cc(CNC(=O)Cc3ccc([N+](=O)[O-])cc3)ccc2n1C,5.3%
19,Cc1nc(-n2[nH]c3c(c2=O)CCCC3)[nH]c(=O)c1Cc1ccccc1,11.7%
20,Cc1cc(C)cc(NC(=O)c2ccc3nc[nH]c3c2)c1,14.2%
21,COc1cc(NC(=O)CSc2nc3c(c(=O)n(C)c(=O)n3C)n2C)cc(OC)c1,3.01%
22,O=c1oc2cc(Br)ccc2n1CSC1=NCCS1,10.3%
23,Cc1ccsc1C(=O)C1CCCN(Cc2cccc(-n3cccn3)c2)C1 (centres unmarked),-10.8%

row,SMILES,"hERG current change (%, negative = inhibition) at 1uM"
1,Cc1ccc(S(=O)(=O)N(C)CC(=O)N2CCCCCC2)cc1,16.8%
2,COc1ccc(C(=O)Nc2nnc(S(=O)(=O)N3CCOCC3)s2)cc1,-10.9%
3,CCC1(C)N=C(N)Nc2nc3cc(C)c(C)cc3n21 (centres unmarked),6.79%
4,CCOc1ccccc1-n1c(SCC(=O)N(CC)CC)nnc1-c1ccccn1,6.17%
5,CCOc1cc(OCC)cc(C(=O)NC(=S)Nc2cccc(C(F)(F)F)c2)c1,10.7%
6,O=C(c1ccccc1F)N1CCN(S(=O)(=O)c2ccc(S(=O)(=O)N3CCCCC3)cc2)CC1,8.67%
7,Nc1nc(CSC(=S)N2CCN(c3ccccc3)CC2)nc(Nc2ccc(F)cc2)n1,-2.02%
8,CCn1c(SCC(=O)NC2=NCCS2)nnc1C(C)NC(=O)c1ccc(Cl)cc1 (centres unmarked),15%
9,O=C(Cc1ccsc1)Nc1ccc(S(=O)(=O)C(F)F)cc1,11.7%
10,COc1ccc(/C=N/NC(=O)c2c(C)nc3ccc(Br)cn23)cc1OC,4.44%
11,CSc1ncccc1C(=O)N1CCCC(CCC(=O)NCc2ccccc2F)C1 (centres unmarked),4.53%
12,Cc1cccc2c1NC1(CCCC1)CC2C.Cl (centres unmarked),15.4%
13,Cl.O=C(CSc1ncc(-c2ccc(F)cc2)[nH]1)N1CCCCC1,0.257%
14,Cc1ccc(OCCCSc2ncccn2)cc1C,6.21%
15,CCOc1ccccc1NC(=O)Cn1nnc(C(=O)NCc2ccc3c(c2)OCO3)c1N,6.91%
16,CCC(OCC(O)CN1CCCCC1)c1ccccc1.Cl (centres unmarked),21.8%
17,CC(C)Sc1nc2sc(-c3ccccc3)cc2c(=O)n1N,10.1%
18,Cc1cccc(C)c1NC(=O)N1CCN(C2CCCCC2)CC1,29.2%
19,COc1ccc(C(C(=O)NC(C)(C)C)N(C(=O)CNC(=O)c2cccs2)c2cccnc2)cc1OC (centres unmarked),13%
20,CN(C)c1ccc(C2OC(=O)C3(CCCC3)C(=O)C2(C)C)cc1 (centres unmarked),-1.66%

# Source: paper PMC4336329 (PLoS ONE, 2015)
